This is one part of the list. Sequences were assembled here from the parent chain. Values near 0.05 are background.
B1: TEV protease; numbered along this chain (parent)
chain: MGESLFKGPRDYNPISSSICHLTNESDGHTTSLYGIGFGPFIITNKHLFRRNNGTLVVQSLHGVFKVKDTTTLQQHLVDGRDMIIIRMPKDFPPFPQKLKFREPQREERICLVTTNFQTKSMSSMVSDTSCTFPSGDGIFWKHWIQTKDGQCGSPLVSTRDGFIVGIHSASNFTNTNNYFTSVPKNFMELLTNQEAQQWVSGWRLNADSVLWGGHKVFMVKPEEPFQPVKEATQL

Variants of: B1
Assay: raw area under fraction-flipped curve 0-4 h after induction (AUC4h, not background-subtracted), DNA-recorder readout of cleavage of the substrate (dimensionless); higher = more cleavage of the substrate by the protease variant
Settings: temperature: 34 °C; time window: 0-4 h after rhamnose induction
Procedure: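 In vivo DNA recorder in E. coli TOP10(DE3) ΔrhaA at 34 °C. Each TEVp single-site mutant (parent TEVp 0) is paired with a single-site variant of the 7-mer TEVs (canonical ENLYFQ|S). The substrate sits between flexible linkers in a Bxb1-sfGFP-TEVs-SsrA fusion, so cleavage stabilises Bxb1 and speeds flipping of a recombination array, read by NGS. The value is the raw area under the fraction-flipped curve over 0-4 h after rhamnose induction (AUC4h), with ≥20 reads per time point. It is not background-subtracted; inactive controls average about 0.047.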
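Also: Bxb1 expression induced with 0.2% (w/v) L-rhamnose at OD600 near 0.5, cultures sampled hourly, flipped fraction per protease–substrate barcode pair counted by paired-end Illumina sequencing.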

Variant	area with substrate ANLYFQS	area with substrate CNLYFQS	area with substrate FNLYFQS	area with substrate HNLYFQS	area with substrate MNLYFQS	area with substrate PNLYFQS	area with substrate SNLYFQS	area with substrate VNLYFQS	area with substrate WNLYFQS	area with substrate LNLYFQS	area with substrate TNLYFQS	area with substrate YNLYFQS	area with substrate DNLYFQS	area with substrate GNLYFQS	area with substrate KNLYFQS	area with substrate QNLYFQS	area with substrate NNLYFQS	area with substrate RNLYFQS	area with substrate INLYFQS
MGESLFKGPRDYNPISSSICHLTNESDGHTTSLYGIGFGPFIITNKHLFRRNNGTLVVQSLHGVFKVKDTTTLQQHLVDGRDMIIIRMPKDFPPFPQKLKFREPQREERICLVTTNFQTKSMSSMVSDTSCTFPSGDGIFWKHWIQTKDGQCGSPLVSTRDGFIVNIHSASNFTNTNNYFTSVPKNFMELLTNQEAQQWVSGWRLNADSVLWGGHKVFMVKPEEPFQPVKEATQL [G166N]	0.025	0.0553	0.0493	0.0541	0.0146	0.0526	0.054	0.061	0.0494										
MGESLFKGPRDYNPISSSICHLTNESDGHTTSLYGIGFGPFIITNKHLFRRNNGTLVVQSLHGVFKVKDTTTLQQHLVDGRDMIIIRMPKDFPPFPQKLKFREPQREERICLVTTNFQTKSMSSMVSDTSCTFPSGDGIFWKHWIQTKDGQCGSPLVSTRDGFIVPIHSASNFTNTNNYFTSVPKNFMELLTNQEAQQWVSGWRLNADSVLWGGHKVFMVKPEEPFQPVKEATQL [G166P]	0.068	0.0295		0.0579	0.0534	0.0407	0.0299		0.0471	0.0413	0.0575	0.0318							
MGESLFKGPRDYNPISSSICHLTNESDGHTTSLYGIGFGPFIITNKHLFRRNNGTLVVQSLHGVFKVKDTTTLQQHLVDGRDMIIIRMPKDFPPFPQKLKFREPQREERICLVTTNFQTKSMSSMVSDTSCTFPSGDGIFWKHWIQTKDGQCGSPLVSTRDGFIVGIHRASNFTNTNNYFTSVPKNFMELLTNQEAQQWVSGWRLNADSVLWGGHKVFMVKPEEPFQPVKEATQL [S169R]	0.0666		0.0507	0.055		0.0726	0.0646	0.0647	0.0583	0.0551	0.052	0.0621	0.0466	0.069	0.0618	0.0089			
MGESLFKGPRDYNPISSSICHLTNESDGHTTSLYGIGFGPFIITNKHLFRRNNGTLVVQSLHGVFKVKDTTTLQQHLVDGRDMIIIRMPKDFPPFPQKLKFREPQREERICLVTTNFQTKSMSSMVSDTSCTFPSGDGIFWKHWIQTKDGQCGSPLVSTRDGFIVGIHSASNITNTNNYFTSVPKNFMELLTNQEAQQWVSGWRLNADSVLWGGHKVFMVKPEEPFQPVKEATQL [F173I]	0.0598			0.0599	0.032	0.0532	0.0495	0.0526	0.0491	0.0414			0.0667	0.0595		0.0659	0.0606		
MGESLFKGPRDYNPISSSICHLTNESDGHTTSLYGIGFGPFIITNKHLFRRNNGTLVVQSLHGVFKVKDTTTLQQHLVDGRDMIIIRMPKDFPPFPQKLKFREPQREERICLVTTNFQTKSMSSMVSDTSCTFPSGDGIFWKHWIQTKDGQCGSPLVSTRDGFIVGIHSASNLTNTNNYFTSVPKNFMELLTNQEAQQWVSGWRLNADSVLWGGHKVFMVKPEEPFQPVKEATQL [F173L]	0.0596	0.0705	0.0813	0.0636	0.0692		0.0637		0.0607	0.0579					0.076			0.0595	
MGESLFKGPRDYNPISSSICHLTNESDGHTTSLYGIGFGPFIITNKHLFRRNNGTLVVQSLHGVFKVKDTTTLQQHLVDGRDMIIIRMPKDFPPFPQKLKFREPQREERICLVTTNFQTKSMSSMVSDTSCTFPSGDGIFWKHWIQTKDGQCGSPLVSTRDGFIVGIHSASNSTNTNNYFTSVPKNFMELLTNQEAQQWVSGWRLNADSVLWGGHKVFMVKPEEPFQPVKEATQL [F173S]	0.0614	0.0653		0.0606	0.0708	0.0618		0.0465	0.0608	0.0732	0.0729	0.0699			0.0545		0.0509	0.0615	0.0798
MGESLFKGPRDYNPISSSICHLTNESDGHTTSLYGIGFGPFIITNKHLFRRNNGTLVVQSLHGVFKVKDTTTLQQHLVDGRDMIIIRMPKDFPPFPQKLKFREPQREERICLVTTNFQTKSMSSMVSDTSCTFPSGDGIFWKHWIQTKDGQCGSPLVSTRDGFIVGIHSASNFTDTNNYFTSVPKNFMELLTNQEAQQWVSGWRLNADSVLWGGHKVFMVKPEEPFQPVKEATQL [N175D]	0.0676	0.0596	0.0559	0.0692	0.0481	0.0575	0.0626	0.0501	0.0613		0.0508	0.0617		0.0631	0.0641		0.0581		0.0698
MGESLFKGPRDYNPISSSICHLTNESDGHTTSLYGIGFGPFIITNKHLFRRNNGTLVVQSLHGVFKVKDTTTLQQHLVDGRDMIIIRMPKDFPPFPQKLKFREPQREERICLVTTNFQTKSMSSMVSDTSCTFPSGDGIFWKHWIQTKDGQCGSPLVSTRDGFIVGIHSASNFTMTNNYFTSVPKNFMELLTNQEAQQWVSGWRLNADSVLWGGHKVFMVKPEEPFQPVKEATQL [N175M]	0.0575		0.0643	0.0583					0.0695				0.0851				0.0645	0.0768	
MGESLFKGPRDYNPISSSICHLTNESDGHTTSLYGIGFGPFIITNKHLFRRNNGTLVVQSLHGVFKVKDTTTLQQHLVDGRDMIIIRMPKDFPPFPQKLKFREPQREERICLVTTNFQTKSMSSMVSDTSCTFPSGDGIFWKHWIQTKDGQCGSPLVSTRDGFIVGIHSASNFTPTNNYFTSVPKNFMELLTNQEAQQWVSGWRLNADSVLWGGHKVFMVKPEEPFQPVKEATQL [N175P]	0.0631			0.0538		0.0668					0.0434	0.0584	0.0776	0.0631	0.0673	0.0606	0.0593		
MGESLFKGPRDYNPISSSICHLTNESDGHTTSLYGIGFGPFIITNKHLFRRNNGTLVVQSLHGVFKVKDTTTLQQHLVDGRDMIIIRMPKDFPPFPQKLKFREPQREERICLVTTNFQTKSMSSMVSDTSCTFPSGDGIFWKHWIQTKDGQCGSPLVSTRDGFIVGIHSASNFTTTNNYFTSVPKNFMELLTNQEAQQWVSGWRLNADSVLWGGHKVFMVKPEEPFQPVKEATQL [N175T]	0.051					0.0592	0.0677	0.0665	0.0594		0.0433	0.0849	0.061		0.0798				
MGESLFKGPRDYNPISSSICHLTNESDGHTTSLYGIGFGPFIITNKHLFRRNNGTLVVQSLHGVFKVKDTTTLQQHLVDGRDMIIIRMPKDFPPFPQKLKFREPQREERICLVTTNFQTKSMSSMVSDTSCTFPSGDGIFWKHWIQTKDGQCGSPLVSTRDGFIVGIHSASNFTYTNNYFTSVPKNFMELLTNQEAQQWVSGWRLNADSVLWGGHKVFMVKPEEPFQPVKEATQL [N175Y]	0.109	0.059		0.0562	0.0695					0.0562	0.0648	0.0134			0.068			0.0581	0.065
MGESLFKGPRDYNPISSSICHLTNESDGHTTSLYGIGFGPFIITNKHLFRRNNGTLVVQSLHGVFKVKDTTTLQQHLVDGRDMIIIRMPKDFPPFPQKLKFREPQREERICLVTTNFQTKSMSSMVSDTSCTFPSGDGIFWKHWIQTKDGQCGSPLVSTRDGFIVGIHSASNFTNWNNYFTSVPKNFMELLTNQEAQQWVSGWRLNADSVLWGGHKVFMVKPEEPFQPVKEATQL [T176W]	0.0692			0.0597	0.0485		0.0436		0.0567		0.0517			0.0539				0.0664	0.0539
MGESLFKGPRDYNPISSSICHLTNESDGHTTSLYGIGFGPFIITNKHLFRRNNGTLVVQSLHGVFKVKDTTTLQQHLVDGRDMIIIRMPKDFPPFPQKLKFREPQREERICLVTTNFQTKSMSSMVSDTSCTFPSGDGIFWKHWIQTKDGQCGSPLVSTRDGFIVGIHSASNFTNTNNLFTSVPKNFMELLTNQEAQQWVSGWRLNADSVLWGGHKVFMVKPEEPFQPVKEATQL [Y179L]	0.0511	0.057		0.0578							0.0555	0.0537						0.0515	
MGESLFKGPRDYNPISSSICHLTNESDGHTTSLYGIGFGPFIITNKHLFRRNNGTLVVQSLHGVFKVKDTTTLQQHLVDGRDMIIIRMPKDFPPFPQKLKFREPQREERICLVTTNFQTKSMSSMVSDTSCTFPSGDGIFWKHWIQTKDGQCGSPLVSTRDGFIVGIHSASNFTNTNNQFTSVPKNFMELLTNQEAQQWVSGWRLNADSVLWGGHKVFMVKPEEPFQPVKEATQL [Y179Q]	0.0174		0.0656	0.0617		0.0605	0.0647	0.0583	0.0594	0.0494	0.0637	0.0628	0.0602		0.0592		0.0642	0.0506	0.0611
MGESLFKGPRDYNPISSSICHLTNESDGHTTSLYGIGFGPFIITNKHLFRRNNGTLVVQSLHGVFKVKDTTTLQQHLVDGRDMIIIRMPKDFPPFPQKLKFREPQREERICLVTTNFQTKSMSSMVSDTSCTFPSGDGIFWKHWIQTKDGQCGSPLVSTRDGFIVGIHSASNFTNTNNTFTSVPKNFMELLTNQEAQQWVSGWRLNADSVLWGGHKVFMVKPEEPFQPVKEATQL [Y179T]	0.0683	0.0595		0.0481				0.044			0.0638			0.0572			0.0632		
MGESLFKGPRDYNPISSSICHLTNESDGHTTSLYGIGFGPFIITNKHLFRRNNGTLVVQSLHGVFKVKDTTTLQQHLVDGRDMIIIRMPKDFPPFPQKLKFREPQREERICLVTTNFQTKSMSSMVSDTSCTFPSGDGIFWKHWIQTKDGQCGSPLVSTRDGFIVGIHSASNFTNTNNYPTSVPKNFMELLTNQEAQQWVSGWRLNADSVLWGGHKVFMVKPEEPFQPVKEATQL [F180P]	0.051	0.0513	0.048	0.0506		0.0501		0.0436	0.0496		0.0596	0.0424	0.0565	0.0593			0.0556		0.047
MGESLFKGPRDYNPISSSICHLTNESDGHTTSLYGIGFGPFIITNKHLFRRNNGTLVVQSLHGVFKVKDTTTLQQHLVDGRDMIIIRMPKDFPPFPQKLKFREPQREERICLVTTNFQTKSMSSMVSDTSCTFPSGDGIFWKHWIQTKDGQCGSPLVSTRDGFIVGIHSASNFTNTNNYFASVPKNFMELLTNQEAQQWVSGWRLNADSVLWGGHKVFMVKPEEPFQPVKEATQL [T181A]	0.0637					0.0584		0.077		0.0556			0.128		0.0767	0.0773	0.0783		0.0341
MGESLFKGPRDYNPISSSICHLTNESDGHTTSLYGIGFGPFIITNKHLFRRNNGTLVVQSLHGVFKVKDTTTLQQHLVDGRDMIIIRMPKDFPPFPQKLKFREPQREERICLVTTNFQTKSMSSMVSDTSCTFPSGDGIFWKHWIQTKDGQCGSPLVSTRDGFIVGIHSASNFTNTNNYFYSVPKNFMELLTNQEAQQWVSGWRLNADSVLWGGHKVFMVKPEEPFQPVKEATQL [T181Y]	0.0562	0.0806	0.0848	0.0617	0.0593	0.05	0.0548		0.0676		0.0564	0.047			0.0535		0.0412		
MGESLFKGPRDYNPISSSICHLTNESDGHTTSLYGIGFGPFIITNKHLFRRNNGTLVVQSLHGVFKVKDTTTLQQHLVDGRDMIIIRMPKDFPPFPQKLKFREPQREERICLVTTNFQTKSMSSMVSDTSCTFPSGDGIFWKHWIQTKDGQCGSPLVSTRDGFIVGIHSASNFTNTNNYFTAVPKNFMELLTNQEAQQWVSGWRLNADSVLWGGHKVFMVKPEEPFQPVKEATQL [S182A]	0.0718	0.0838		0.062			0.078				0.0632						0.0632		

Source: the supplement of paper PMC12217912
